Values marked as one replicate rest on one cluster of the flow cell; about a third of the high ones do not repeat.
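Note: ATP exposure 15 min at 22 °C before imaging.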

The data set concerns ATP. As to the kind of experiment: switch fluorescence ratio, 500 uM ATP over buffer (Cy3 cluster intensity, sum of 5 cycles each) (fold (ratio)); higher = stronger signal-on switching upon ATP binding; sequences stand for … in TCGTCGGCAGCGTCAGATGTGTATAAGAGACAGTTTTTTTTTTTTTTTTTTTTTTTTT…TC. To be noted: aptamer strand: ATP DNA aptamer (quencher-CACCTGGGGGAGTATTGCGGAGGAAGG + anchor), 100 nM annealed; ATP concentration: 500 uM; one replicate. The gist of the method: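 For every switch-domain sequence, the fluorescence ratio is the mean of per-cluster values, each being summed target-cycle Cy3 intensity over summed buffer-cycle Cy3 intensity. Clusters outside 100-1000 RFU were excluded. On a modified Illumina MiSeq flow-cell, the Cy3-labelled switching-strand clusters were annealed to 100 nM quencher-labelled ATP aptamer, imaged in selection buffer and then after 15 min with 500 uM ATP at 22 °C. Five such cycles were run, with NaOH stripping and re-annealing between them.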
Consider ATTAAAACGT, for which the switch fluorescence ratio turned out to be 1.07. In the case of TCTCAGCTGC, the switch fluorescence ratio worked out at 1.32. Regarding TTTGCTAGCA, the switch fluorescence ratio is 0.997. For TTGCTACTAA the value was 0.996. For CTGGTATAAG the value was 0.98. The figure for AAAGTCCGGA is 1.04; for TCCCACA it is 1.26. Regarding CTGCTAGGTT, the switch fluorescence ratio amounted to 1. As to ACGCCATCCC, the switch fluorescence ratio turned out to be 1.28.

Take ATCTTTCATT: the switch fluorescence ratio turned out to be 0.978. For AGATACGGGA the value was 1.01; for CCGTGCCCGG, 1.12; for GAGTACTTAA, 1.01.

In the case of TAGGGGCGC, the switch fluorescence ratio was found to be 0.999.

For the sequence TCCTACCAGT, the switch fluorescence ratio turned out to be 1.67. As to CTTTCGATAA, the switch fluorescence ratio came out at 1.03.

Consider TTTGGGTTTA, for which the switch fluorescence ratio stood at 0.97.

Consider AGCGTAGTCC, for which the switch fluorescence ratio is 1.06.

As to TTCGTTCCGA, the switch fluorescence ratio was found to be 1.05. For AATCCGTATG the value was 1.03. The figure for GTAGGTGTGG is 1.02. In the case of TCCTTTCAGG, the switch fluorescence ratio came out at 0.988. Turning to GTCTGGCTTT, the switch fluorescence ratio turned out to be 1.04.

With GTTGTCGACG, the switch fluorescence ratio turned out to be 1.01. For GCGAGATGAC the value was 1.06; for CGTAAGCCAT, 0.963; for TAGTCCTCCG, 3.25.

Take TCCACCTGGT: the switch fluorescence ratio amounted to 1.49. As to GATATAGAA, the switch fluorescence ratio stood at 0.985. For GCCTAAACA the value was 1; for CATAAAGTTA, 1.02; for CGCACATAGT, 2.31. The figure for CACCAGAGTT is 1.04. For ATGAGGACGC the value was 1.06. With AGCGCGGTCG, the switch fluorescence ratio amounted to 1.06. Turning to CTTACTGGGT, the switch fluorescence ratio stood at 1.02. For AGGCGCCGGG the value was 0.987. The figure for CGAAGGATAA is 1.22; for GGCTAAACAT it is 1.02. For ACTGTTCGTC, the switch fluorescence ratio turned out to be 0.998. Consider TTATCGCTGA, for which the switch fluorescence ratio was 1.01. For the sequence TGTGGTAGGG, the switch fluorescence ratio was 0.982. For CTTCTGCCGA the value was 1.07; for TACAGTATGG, 1.07. For GACTGCCCCA the value was 1.21; for TTCAATATGG, 1.05; for CGTAGGACGT, 1.02. For AGCTGAGGGT the value was 0.946; for TTGTACGTCG, 1.01; for CATTGGGCAC, 1. TAACAGAGGA: the switch fluorescence ratio turned out to be 0.986. The figure for TATAATCGTT is 0.99.

As for TTGGCCTAGG, the switch fluorescence ratio worked out at 1.03. The figure for AAGTTGCGAA is 1.01; for TGCCTGATCT it is 1.05. The figure for TCCGTTTTTG is 1.02. Take GCACAACAGG: the switch fluorescence ratio is 1.23.

Turning to AACAGGGGCA, the switch fluorescence ratio amounted to 1.07. Regarding AGAATATCCG, the switch fluorescence ratio was 1.02.

Regarding GTTGGTCCCA, the switch fluorescence ratio stood at 1.02.

Regarding AACTAGACA, the switch fluorescence ratio stood at 1.05. The figure for TCGCGGAAGG is 1.02; for TGAGTGCACC it is 0.999; for GAACCCTGAA it is 1.09. With GCGTCGCGCT, the switch fluorescence ratio is 0.998. For CAAGAAAGTA the value was 1.09. The figure for GATTGGTGTC is 0.892; for ATGTGAATGC it is 1.07.

TCGGGCATTA: the switch fluorescence ratio amounted to 1.05.

On to GAGCATCAGG, for which the switch fluorescence ratio was determined as 0.98. For TTTTATGCAG the value was 0.969; for GAACTGAGTG, 1.01.

For CTTTCCGGAC, the switch fluorescence ratio came to 1.37. On to GAGTGATTTC, for which the switch fluorescence ratio worked out at 1.03. Take TTGTGGTTC: the switch fluorescence ratio was determined as 0.989. For the sequence TTACAATTAT, the switch fluorescence ratio came to 0.989. The figure for CGTAGTAGGG is 1.03. The figure for CATCGATTAG is 0.956.
